Screen size: about 420,000 compounds; about 50,000 (12%) were called active. Inconclusive means that the source gave no clear call. Such entries were picked first, then a sample of the others. Calls follow the shape of the dose curve; as a rule, active = well fitted inhibition curve with a large enough effect; inconclusive = small, poorly fitted or top-dose-only effect; inactive = flat fitted curve, though single readings scatter. Potencies of inconclusive entries are left out as doubtful fits.
Assay: qHTS for Inhibitors of human tyrosyl-DNA phosphodiesterase 1 (TDP1): qHTS in cells in presence of CPT; also: nearly all actives have a fitted effect of over 55% in size
Details: chicken DT40 Tdp1-/-;hTDP1 cells + 20 nM CPT, ATP luminescence, 48 h; series mostly up to 46.2 µM
Summary of the method: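 Chicken DT40 Tdp1-/- cells complemented with human TDP1, 400 cells/well, exposed to compounds plus 20 nM camptothecin for at least 48 h at 37 C; viability read as ATP content by CellTiter-Glo luminescence.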
Potency is read from the fitted curve at half-maximal effect; tags tell the direction and shape of the fitted curve.

Compound | Potency
C=CCn1cc(C(=O)NCC2CCCO2)c(=O)c2cc(S(=O)(=O)N3CCCCCC3)ccc21 (stereo not given) | inconclusive [inhibitor, single point]
O=S(=O)(c1ccc(Cl)cc1)c1nc(-c2cccs2)oc1N1CCCCC1 | inconclusive [inhibitor, single point]
C#CCN(C[C@@H]1[C@@H](OC(=O)NCCCCCC)[C@@H](OC(=O)NCCCCCC)Cn2c(=O)ccc(=O)n21)S(=O)(=O)c1ccc(C)cc1 | active: 4.61 µM
Cc1cc(NC(=O)CCC(=O)N(CC(=O)NCC2CCCO2)c2ccc3c(c2)OCCO3)no1 (stereo not given) | inactive
O=C(NC(c1ccc(F)cc1)c1ccc2ccccc2n1)C1CCN(CCOc2ccc(F)cc2)CC1 (stereo not given) | active: 8.2 µM
COc1ccccc1CNC(=O)Cc1csc2nc(-c3ccc(F)cc3)cn12 | inconclusive [inhibitor, single point]
COc1ccc(CCNCc2cc(C)n(-c3ccc(OC)cc3)c2C)cc1 | active: 16.4 µM
COc1cccc(-c2cc(NCc3ccccc3OC)ncn2)c1 | active: 4.11 µM
c1ccc(N2CCN(c3ncnc4scc(-c5cccs5)c34)CC2)cc1 | inconclusive [inhibitor, single point]
CCCOc1ccc(C(=O)Nc2ccc(N3CCOCC3)cc2N2CCOCC2)cc1OCC | inconclusive [inhibitor, single point]
O=C(COc1ccc(F)cc1)N(Cc1cccc(Br)c1)C1CCS(=O)(=O)C1 (stereo not given) | inconclusive [inhibitor, single point]
Cc1cccc(C(=O)Oc2ccccc2/C=N/Nc2ccc([N+](=O)[O-])cc2)c1 | active: 29.1 µM
COC(=O)c1ccc(C(=O)OC)c(NC(=S)N2CCCC(C)C2)c1 (stereo not given) | inactive
C/C(=N\NC(=S)NCCc1ccccc1)c1ccc(O)cc1O | inconclusive [inhibitor, single point]
CCOC(=O)c1sc2ccccc2c1S(=O)(=O)NCc1ccccc1OC | inconclusive [inhibitor, single point]
O=C(CCc1nc(-c2ccccc2)no1)NC1CCCCCC1 | inactive
O=[N+]([O-])c1cccc(/C=C/c2ccccn2)c1 | inactive
NC(=O)c1cccnc1Oc1cccc(Cl)c1 | inconclusive [inhibitor, single point]
Cc1ccccc1-n1c(SCc2c(C)noc2C)nnc1-c1c[nH]c2ccccc12 | inconclusive [inhibitor, single point]
CCc1cc(=O)oc2cc(C)c(CN3CCCC(C)C3)c(O)c12 (stereo not given) | inconclusive [inhibitor, partial curve]

Reference: PubChem BioAssay AID686979 (National Center for Advancing Translational Sciences (NCATS), 2013)
